Experimental data: PubChem BioAssay AID1159614 (National Center for Advancing Translational Sciences (NCATS), 2016)
In all, about 45,000 compounds went through this assay and about 65 (0.1%) were called active. The call rests on the fitted dose curve; in most records, active means well fitted activation curve with a large enough effect; inconclusive means small, poorly fitted or top-dose-only effect; inactive means no such curve, though single readings can be large or run the other way. The list shows a part of the results.

Each compound was assayed against Galactocerebrosidase (Homo sapiens) (UniProt P54803) (assay: A Novel Cell-Based Assay to Identify Small Molecules for B -Galactocerebrosidase). Settings: 145M-Twi-hGALC-G270D cells (Twitcher mouse brain line with human GALC G270D), HMU-beta-Gal fluorescence, 48 h; series mostly up to 57.5 µM; activation: at the top concentration.
Summary of the method: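 Fluorogenic HMU-b-Gal hydrolysis (0.1 mM final, pH 5.2 citrate-phosphate with 1 mg/mL sodium taurocholate; carbonate stop buffer) measures mutant GALC activity after compound treatment of live 145M-Twi Twitcher brain cells stably carrying human GALC-G270D, with wild-type GALC line alongside; activation sought.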
Further: 0% is about no effect; nearly all actives have a fitted effect of over 65% in size.

Chain of UniProt P54803 (P54803 whole entry, looked up): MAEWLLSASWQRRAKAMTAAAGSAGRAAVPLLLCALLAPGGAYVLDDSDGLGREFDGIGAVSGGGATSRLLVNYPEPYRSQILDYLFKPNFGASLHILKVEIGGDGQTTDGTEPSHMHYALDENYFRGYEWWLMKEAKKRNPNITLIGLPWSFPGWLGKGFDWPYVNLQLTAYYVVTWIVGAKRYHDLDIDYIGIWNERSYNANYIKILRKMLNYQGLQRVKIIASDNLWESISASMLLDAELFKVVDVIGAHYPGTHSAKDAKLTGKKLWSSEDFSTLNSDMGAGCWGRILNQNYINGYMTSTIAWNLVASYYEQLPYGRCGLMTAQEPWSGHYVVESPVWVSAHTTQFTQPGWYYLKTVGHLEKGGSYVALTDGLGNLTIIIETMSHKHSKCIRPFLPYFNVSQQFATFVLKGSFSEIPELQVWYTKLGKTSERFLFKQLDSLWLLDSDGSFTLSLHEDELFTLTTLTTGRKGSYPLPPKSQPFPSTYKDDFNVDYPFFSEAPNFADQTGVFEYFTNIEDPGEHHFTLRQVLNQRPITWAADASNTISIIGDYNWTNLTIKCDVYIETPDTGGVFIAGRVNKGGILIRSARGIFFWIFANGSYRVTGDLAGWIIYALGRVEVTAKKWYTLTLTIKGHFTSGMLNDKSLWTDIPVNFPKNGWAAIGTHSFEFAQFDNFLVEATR

activation, inactive:
CCOc1ccc(-c2cc(C(=O)NCCc3ccc(OC)c(OC)c3)[nH]n2)cc1 -11.4%
CCc1ccc(NC(=O)Cn2c(=O)c3cc(Cl)ccc3n3nncc23)cc1 -7.67%
C=Cc1ccc(Cn2c(SCC(=O)N3CCN(c4ccc(F)cc4)CC3)nc3ccccc32)cc1 -8.47%
COC(=O)c1cccc(CN2C(=O)SC(Nc3ccc(C)cc3)C2=O)c1 (configuration not stated) -11.4%
Cc1ccccc1CNC(=O)C(=O)NCC(c1cccs1)S(=O)(=O)c1cccs1 (configuration not stated) 9.1%
O=c1c2oc3ccccc3c2n(Cc2cccc(F)c2)c(=O)n1Cc1ccc2c(c1)OCO2 -12.4%
CC(=O)Nc1nonc1-c1nnc(SCc2ccccc2)n1C -5.13%
COc1ccc(-n2nc(C(=O)Nc3cc(C)ccn3)c3c4ccccc4n(C)c3c2=O)cc1Cl -5.31%
CCC(=O)Nc1cccc(-c2nc3cc(C)ccc3o2)c1 -21.3%
CC(=O)c1ccc(N2CCN(c3ccc4cc(S(=O)(=O)N5CCC(C)CC5)ccc4n3)CC2)cc1 -10.3%
Cc1ccc(S(=O)(=O)c2cn(CC(=O)Nc3ccc(Cl)cc3)c3ccc(F)cc3c2=O)cc1C -10.2%
C[C@@]12CCC[C@H]1[C@@H]1CC[C@H]3C[C@@H](O)CC[C@]3(C)[C@H]1CC2 -16.9%
CCOC(=O)c1ccc(NC(=O)CCc2nc3cccnc3n2Cc2cccs2)cc1 -12%
Cc1cccc(NC(=O)/C(C#N)=C/c2ccc(C)o2)c1 -14%
CCOC(=O)c1c(NC(=O)c2cc(CC)on2)sc(C(C)=O)c1C -21%
COc1cc(C2CC(=O)Nc3c2c(=O)n(C)c2ncnn32)cc(OC)c1OC (configuration not stated) -5.44%
CSc1ccc(CCNC(=O)c2c(C)oc3ncn(C)c(=O)c23)cc1 -10.9%
COc1ccc(N2CCN(C(=O)C3CCN(c4nc5ccc(C)cc5[nH]4)CC3)CC2)cc1 -5.56%
Cc1cccc(Cn2c(Cc3ccccc3)nc3ccccc32)c1 -10.8%
O=C(CN1c2ccccc2S(=O)(=O)c2ccccc21)Nc1cccc(C(F)(F)F)c1 -17.4%
COc1ccc(CCN2CCC(CNC(=O)c3cnn(-c4cccc(Cl)c4)c3C3CCN(C(=O)OC(C)(C)C)CC3)CC2)cc1 -7.86%
CC(=O)Nc1cccc(C(=O)NCc2ccc3c(c2)CCN3C(=O)c2ccc(F)cc2)c1 -8.7%
O=C(Nc1ccc(C(F)(F)F)cc1)C(Cc1ccccc1)n1cccc1 (configuration not stated) -0.235%
O=C(NCCCN1CCN(c2ccccc2F)CC1)c1ccc2nc(N3CCCCC3)sc2c1 -11.9%
CC(=O)c1ccc(NC(=O)COCc2cc(-c3ccc(F)cc3)on2)cc1 -13.4%
COc1ccccc1NC(=O)C1=C(C)Nc2nc(SCc3ccccc3)nn2C1c1ccncc1 (configuration not stated) -13.5%
Cc1cc(NC(=O)c2ccc(NC(=O)CCS(=O)(=O)c3cccs3)cc2)ccc1Br -26.2%
CCN(C(=O)C1CCCN(c2ncnc3c2nc2n3CCCCC2)C1)c1cccc(Cl)c1 (configuration not stated) -17.6%
Cc1cc2c(cc3c(SCc4ccccc4Cl)nnc(C)n32)o1 -5.98%
COc1cccc(NS(=O)(=O)c2ccc3[nH]cc(C(=O)N4CCCC4)c(=O)c3c2)c1 -1.86%
Cc1c(CCNC(=O)C(C)(C)C)sc2nc(-c3ccc(F)cc3)nn12 1.81%
Cc1cc(Nc2cc(F)ccc2C)nc(-n2nc(C)cc2C)n1 -7.27%
COc1cc(NC(=O)Cn2nc3c(cc2=O)CC(C)CC3)cc(OC)c1OC (configuration not stated) -15.6%
COc1cc(OC)c(N(C)C(=O)c2sc3nc4n(c(=O)c3c2C)CCCCC4)cc1Cl -14.4%
COc1ccc2[nH]cc(CCN=C(NC(=O)c3ccccc3C)Nc3nc(C)cc(C)n3)c2c1 -6.47%
COc1ccc(OCC(=O)Nc2ccc(-c3nc4cc(C)c(C)cc4o3)cc2)cc1 -20.2%
Cc1c(C(=O)N2CCC(C)CC2)c(S(=O)(=O)Nc2ccc(OC(F)(F)F)cc2)c(C)n1C -7%
CC(C)N(Cc1ccccc1)C(=O)CN1C(=O)CSc2ccc(S(=O)(=O)N3CCCC3)cc21 -25.6%
CN(C)S(=O)(=O)N(CC(=O)NCCSc1ccccc1)c1ccccc1 -12.1%
CCn1cc(C(=O)N2CCN(c3ccc(OC)cc3)CC2)c(=O)c2cc(S(=O)(=O)N3CCOCC3)ccc21 -16.8%
N#Cc1c[nH]n2c(NC3CCCC3)c(-c3ccc(Cl)cc3)nc12 -12.2%
CCN(CC)CCNC(C(=O)OCCC(C)C)c1ccccc1 (configuration not stated) -13.1%
O=C(Cn1ncc2c3ccccc3n(Cc3ccc(F)cc3)c2c1=O)NCCCN1CCCCC1 -11.1%
O=C(CCS(=O)(=O)c1cccc2nonc12)Nc1ccc(Br)cc1 -8.58%
Cc1ccc(CCNC(=O)c2c(C)nn(-c3ccc(F)cc3)c2-n2cccc2)cc1 -36%
CCOc1ccccc1NC(=O)N1CCC2(CC1)Oc1ccccc1C(=O)N2Cc1ccccc1F -15.8%
CC1=C(C(=O)Nc2ccccc2)C(c2ccc(O)cc2)n2nc(SCc3ccccc3)nc2N1 (configuration not stated) -12.9%
CCc1ccc(NC(=O)C(=O)NCCc2sc3nc(-c4ccc(OC)cc4)nn3c2C)cc1 -1.55%
Cc1ccc(CNc2nc3ccc(C)cc3n3nnnc23)cc1 -8.36%
COc1ccc(Cl)cc1NC(=O)CCn1c(=O)oc2ccccc21 -0.533%
O=c1[nH]c(SCc2ccc([N+](=O)[O-])cc2)nc2c1CCCC2 -13.4%
Cc1ccccc1NC(=O)CSc1ccc(-c2cccs2)nn1 -6.55%
Cc1ccc(NC(=O)c2c(NC(=O)C(F)(F)F)sc3c2CCCCC3)cc1 -28.5%
O=C(Cn1c(-c2cccs2)cc2ccccc21)NCCCN1CCN(c2ccccc2F)CC1 -14.5%
O=C(CSc1nccn1Cc1ccccc1)Nc1ccc2c(c1)OCCO2 -10.8%
O=C(CSc1nnc(COc2ccccc2)o1)Nc1cc(C(F)(F)F)ccc1Cl -12.8%
Cc1ccc(CNC(=O)Cn2cccc2C(=O)c2ccccc2C)cc1 3.48%
CCN(C(=O)c1cc2c(s1)-c1ccccc1OC2)c1cccc(C(F)(F)F)c1 -5.4%
COc1ccc(NC(=O)Nc2nnc(N(CC(C)C)CC(C)C)s2)c(OC)c1 -15.4%
COc1ccc(NC(=O)c2cc(C3CC3)nc3c2c(C)nn3-c2ccccc2)cc1OC -2.17%
COc1ccc(-n2c(=O)c3ccc(C(=O)NCc4ccc(C)cc4)cc3n(Cc3ccc(Cl)cc3)c2=O)cc1 -11.2%
COc1ccc(-n2nc3c(N4CCCC(C(=O)NCCc5ccccc5C)C4)nnc(C)c3c2C)cc1 (configuration not stated) -9.58%
